# B1: AC1.2R3P2_A6 scFv (scFv, part only; not given: linker, part only)
# scFv, part: [about 100 residues omitted here]DGSSGWYVPHWFDPWGRGTLVTVSSNFMLTQPHSVSESPGKTVTISCTRSSGSIVSNYVQWYQQRPGSAPTTVIYEDNRRPSGVPDRFSGSIDSSSNTASLTISGLEAEDEADYYCQSYDGSNRWMFGGGTKLTVLG
# B2: AD1.3R3P6_E1 scFv (scFv, part only; not given: linker, part only)
# scFv, part: [about 100 residues omitted here]RSFDSGGSFEYWGQGTMVTVSSNFMLTQPHSVSESPGKTVTISCTRSSGYIASSYVQWYQQRPGSSPTTVIFEDDRRPSGVPDRFSGSIDGSSNSASLTISGLRTEDEADYYCQSYDDTTPWVFGGGTKLTVLG
# B3: AD1.4R4P2_C9 scFv (scFv, part only; not given: linker, part only)
# scFv, part: [about 100 residues omitted here]DGWNALGWLESWGRGTLVTVSSNFMLTQPHSVSESPGRTITISCTRSGGSIGSYYVQWYQQRPGTAPTTVIYDDKKRPSGVPDRFSGSIDSSSNSASLTISGLKTEDEADYYCQSYDSNNLVVFGGGTKVTVLG
# B4: AD1.4R4P2_G7 scFv (scFv, part only; not given: linker, part only)
# scFv, part: [about 100 residues omitted here]DGWNALGWLESWGQGTMVTVSSNFMLTQPHAVSESPGKTVTISCTGRNGNIASNYVQWYQQRPDSAPTLIIFEDTQRPSGVPTRLSGSIDTSSNSASLIISSLRTEDEADYYCQSSDSNRVLFGGGTKVTVLG
# B5: AD1.3R3P6_G10 scFv (scFv, part only; not given: linker, part only)
# scFv, part: [about 100 residues omitted here]DGWNALGWLESWGKGTTVTVSSNFMLTQPHSVSESPGKTVTISCAGSSGSIASNYVQWYQQRPGSAPTAVIYEDNQRPSGVPDRFSGSIDSSSNSASLTISGLKTEDEADYYCQSYSYNNQVVFGGGTKVTVLG
# B6: AD1.2R2P2_D6 scFv (scFv, part only; not given: scFv linker, part only)
# scFv, part: [about 100 residues omitted here]DGWNALGWLESWGKGTMVTVSSNFMLTQPHSVSESPGKTVTISCTGSSGSIASNYVQWYQQRPGSAPTTVIYEDNQRPSGVPDRFSGSIDSSSNSASLTISGLKTEDEADYYCQSYDSSNQEVVFGGGTKLTVLG
# B7: AD1.1R3P3_G9 scFv (scFv, part only; not given: linker, part only)
# scFv, part: [about 100 residues omitted here]DFWVITSGNDYWGRGTTVTVSSNFMLTQPHSVSESPGKTVTISCTRSSGSIASNYVQWYQQRPGSSPTTVIFEDNRRPSGVPDRFSGSIDTSSNSASLTISGLKTEDEADYYCQSFDSTNLVVFGGGTKLTVLG
# B8: AD1.3R3P5_F8 scFv (scFv, part only; not given: linker, part only)
# scFv, part: [about 100 residues omitted here]VGSWYLEDFDIWGRGTMVTVSSNFMLTQPHSVSESPGKTVTISCTRSSGSIASNYVHWYQQRPGSSPTTVIYEDNRRPSGVPARFSGSIDSSSNSASLTISGLETDDEADYYCQSSDTTYHGGVVFGGGTKLTVLG
# B9: AC1.2R2P2_D8 scFv (scFv, part only; not given: linker, part only)
# scFv, part: [about 100 residues omitted here]DGSSGWYVPHWFDPWGQGTLVTVSSNFMLTQPHSVSESPGKTVTISCTRSSGSIVSNYVQWYQQRPGSSPTTVIYEDNQRPSGVPDRFSGSIDSSSNSASLTISGLKTEDEADYYCQSYDSNNFWVFGGGTKLTVLG
# B10: AC1.4R4P2_C10 scFv (scFv, part only; not given: linker, part only)
# scFv, part: [about 100 residues omitted here]DGSSGWYVPHWFDPWGRGTMVTVSSNFMLTQPHSVSESPGKTVTISCTRSSGTIASNYVQWYQQRPGSSPTTVIYEDNQRPSGVPDRFSGSIDSSSNSASLTISGLKTEDEADYYCQSYDNSNHWVFGGGTKVTVLG
# B11: AC1.2R3P2_B4 scFv (scFv, part only; not given: linker, part only)
# scFv, part: [about 100 residues omitted here]DHSSGWYVISGMDVWGRGTMVTVSSNFMLTQPHSVSESPGKTVTISCTRSSGSIASNYVQWYQQRPGSSPTTVISEDNQRPSGVPDRFSGSVDSSSNSASLTISGLRTEDEADYYCQSNDSDNVVFGGGTKLTVLG
# B12: AD1.4R4P1_B9 scFv (scFv, part only; not given: linker, part only)
# scFv, part: [about 100 residues omitted here]DLTVGGPWYYFDYWGQGTLVTVSSNFMLTQPHSVSESPGKTVTISCTRSSGSIVSNYVQWYQQRPGSAPTTVIFDDDQRPSGVPGRFSGSLDSSSNSASLTISGLQTEDEADYYCQSYDSSNVVFGGGTKVTVLG
# B13: AD1.3R3P6_F9 scFv (scFv, part only; not given: scFv linker, part only)
# scFv, part: [about 100 residues omitted here]GGNYGDYFDYFDYWGRGTMVTVSSNFMLTQPHSVSESPGKTVTISCTRSSGSIASNYVQWYQQRPGSAPTIVIYEDNQRPSGVPHRFSGSIDSSSNSASLTISGLKTEDEADYYCQSYEGFGGGTKLTVLG
# Molecular target: recombinant human IFNγ (human) (UniProt P01579)
# UniProt P01579, sequence (P01579 24-166 limits assumed): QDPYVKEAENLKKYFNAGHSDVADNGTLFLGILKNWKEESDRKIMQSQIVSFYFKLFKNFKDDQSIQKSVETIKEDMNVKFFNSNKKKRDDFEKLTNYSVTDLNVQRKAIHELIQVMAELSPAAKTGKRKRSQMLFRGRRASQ
# Experiment: cell-based or functional assay
Binder,Percentage inhibition of IFNγ-induced reporter gene expression at 0.011 nM scFv [%],Percentage inhibition of IFNγ-induced reporter gene expression at 0.043 nM scFv [%],Percentage inhibition of IFNγ-induced reporter gene expression at 0.17 nM scFv [%],Percentage inhibition of IFNγ-induced reporter gene expression at 0.68 nM scFv [%],Percentage inhibition of IFNγ-induced reporter gene expression at 2.7 nM scFv [%]
B1,0,87,100,92,82
B2,0,10,38,68,43
B3,0,33,58,67,56
B4,4,38,24,73,75
B5,0,0,0,44,47
B6,0,11,31,73,82
B7,0,0,0,12,52
B8,0,0,48,64,64
B9,0,10,40,60,60
B10,19,34,53,50,63
B11,0,5,21,49,63
B12,0,0,56,53,62
B13,0,0,3,32,68
